Here are results for 31 molecules from publication PMC9911399, “Two distinct binding modes provide the RNA-binding protein RbFox with extraordinary sequence specificity”.

The labels stand for the following.
T1: RBFOX1 RRM RbFoxmut (Fox-RRM*) (Homo sapiens, UniProt Q9NWB1 109-208, R118D;E147R;N151S;E152T)
T1 sequence: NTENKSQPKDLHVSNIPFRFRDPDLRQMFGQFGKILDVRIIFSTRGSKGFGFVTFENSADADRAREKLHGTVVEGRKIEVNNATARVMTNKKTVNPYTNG

B1: GGGUUAG (DNA:RNA)
RNA: GGGAGACCGGAAUUCAGAUUGUCCGGGUUAGUUAAAUCCCGUCGUAGCCACCA
DNA 1: CAATCTGAATTCCGGTCTCCC
DNA 2: TGGTGGCTACGACGGGATT
B2: AUCAAAC (DNA:RNA)
RNA: B1 RNA with G25A, G26U, G27C, U28A, U29A, G31C
DNA 1: CAATCTGAATTCCGGTCTCCC
DNA 2: TGGTGGCTACGACGGGATT
B3: GGAUGGU (DNA:RNA)
RNA: B1 RNA with G27A, U29G, A30G, G31U
DNA 1: CAATCTGAATTCCGGTCTCCC
DNA 2: TGGTGGCTACGACGGGATT
B4: GAUUAUC (DNA:RNA)
RNA: B1 RNA with G26A, G27U, U29A, A30U, G31C
DNA 1: CAATCTGAATTCCGGTCTCCC
DNA 2: TGGTGGCTACGACGGGATT
B5: UUUCCAU (DNA:RNA)
RNA: B1 RNA with G25U, G26U, G27U, U28C, U29C, G31U
DNA 1: CAATCTGAATTCCGGTCTCCC
DNA 2: TGGTGGCTACGACGGGATT
B6: UAAGCAG (DNA:RNA)
RNA: B1 RNA with G25U, G26A, G27A, U28G, U29C
DNA 1: CAATCTGAATTCCGGTCTCCC
DNA 2: TGGTGGCTACGACGGGATT
B7: CCUUCGC (DNA:RNA)
RNA: B1 RNA with G25C, G26C, G27U, U29C, A30G, G31C
DNA 1: CAATCTGAATTCCGGTCTCCC
DNA 2: TGGTGGCTACGACGGGATT
B8: UCGAUUA (DNA:RNA)
RNA: B1 RNA with G25U, G26C, U28A, A30U, G31A
DNA 1: CAATCTGAATTCCGGTCTCCC
DNA 2: TGGTGGCTACGACGGGATT
B9: CGAACAG (DNA:RNA)
RNA: B1 RNA with G25C, G27A, U28A, U29C
DNA 1: CAATCTGAATTCCGGTCTCCC
DNA 2: TGGTGGCTACGACGGGATT
B10: GGAUUCU (DNA:RNA)
RNA: B1 RNA with G27A, A30C, G31U
DNA 1: CAATCTGAATTCCGGTCTCCC
DNA 2: TGGTGGCTACGACGGGATT
B11: CUCGCGU (DNA:RNA)
RNA: GGGAGACCGGAAUUCAGAUUGUCCCUCGCGUUUAAAUCCCGUCGUAGCCACCA
DNA 1: CAATCTGAATTCCGGTCTCCC
DNA 2: TGGTGGCTACGACGGGATT
B12: UUAAGGC (DNA:RNA)
RNA: B11 RNA with C25U, C27A, G28A, C29G, U31C
DNA 1: CAATCTGAATTCCGGTCTCCC
DNA 2: TGGTGGCTACGACGGGATT
B13: CGUAAUU (DNA:RNA)
RNA: B11 RNA with U26G, C27U, G28A, C29A, G30U
DNA 1: CAATCTGAATTCCGGTCTCCC
DNA 2: TGGTGGCTACGACGGGATT
B14: GCCAGUA (DNA:RNA)
RNA: B11 RNA with C25G, U26C, G28A, C29G, G30U, U31A
DNA 1: CAATCTGAATTCCGGTCTCCC
DNA 2: TGGTGGCTACGACGGGATT
B15: GUAAAUG (DNA:RNA)
RNA: B1 RNA with G26U, G27A, U28A, U29A, A30U
DNA 1: CAATCTGAATTCCGGTCTCCC
DNA 2: TGGTGGCTACGACGGGATT
B16: UUCCGCC (DNA:RNA)
RNA: B11 RNA with C25U, G28C, C29G, G30C, U31C
DNA 1: CAATCTGAATTCCGGTCTCCC
DNA 2: TGGTGGCTACGACGGGATT
B17: AUACUUG (DNA:RNA)
RNA: B1 RNA with G25A, G26U, G27A, U28C, A30U
DNA 1: CAATCTGAATTCCGGTCTCCC
DNA 2: TGGTGGCTACGACGGGATT
B18: CACUUAG (DNA:RNA)
RNA: B1 RNA with G25C, G26A, G27C
DNA 1: CAATCTGAATTCCGGTCTCCC
DNA 2: TGGTGGCTACGACGGGATT
B19: CAAGGUG (DNA:RNA)
RNA: B11 RNA with U26A, C27A, C29G, G30U, U31G
DNA 1: CAATCTGAATTCCGGTCTCCC
DNA 2: TGGTGGCTACGACGGGATT
B20: AUGGCUC (DNA:RNA)
RNA: B11 RNA with C25A, C27G, G30U, U31C
DNA 1: CAATCTGAATTCCGGTCTCCC
DNA 2: TGGTGGCTACGACGGGATT
B21: UCGCAUU (DNA:RNA)
RNA: B11 RNA with C25U, U26C, C27G, G28C, C29A, G30U
DNA 1: CAATCTGAATTCCGGTCTCCC
DNA 2: TGGTGGCTACGACGGGATT
B22: CAGAAGU (DNA:RNA)
RNA: B11 RNA with U26A, C27G, G28A, C29A
DNA 1: CAATCTGAATTCCGGTCTCCC
DNA 2: TGGTGGCTACGACGGGATT
B23: CUCUUAC (DNA:RNA)
RNA: B11 RNA with G28U, C29U, G30A, U31C
DNA 1: CAATCTGAATTCCGGTCTCCC
DNA 2: TGGTGGCTACGACGGGATT
B24: UGUCUGC (DNA:RNA)
RNA: B1 RNA with G25U, G27U, U28C, A30G, G31C
DNA 1: CAATCTGAATTCCGGTCTCCC
DNA 2: TGGTGGCTACGACGGGATT
B25: GUCGCCU (DNA:RNA)
RNA: B11 RNA with C25G, G30C
DNA 1: CAATCTGAATTCCGGTCTCCC
DNA 2: TGGTGGCTACGACGGGATT
B26: GAUUGAC (DNA:RNA)
RNA: B1 RNA with G26A, G27U, U29G, G31C
DNA 1: CAATCTGAATTCCGGTCTCCC
DNA 2: TGGTGGCTACGACGGGATT
B27: GCGGCAC (DNA:RNA)
RNA: B1 RNA with G26C, U28G, U29C, G31C
DNA 1: CAATCTGAATTCCGGTCTCCC
DNA 2: TGGTGGCTACGACGGGATT
B28: CCAUGGG (DNA:RNA)
RNA: B11 RNA with U26C, C27A, G28U, C29G, U31G
DNA 1: CAATCTGAATTCCGGTCTCCC
DNA 2: TGGTGGCTACGACGGGATT
B29: AUUAAAG (DNA:RNA)
RNA: B1 RNA with G25A, G26U, G27U, U28A, U29A
DNA 1: CAATCTGAATTCCGGTCTCCC
DNA 2: TGGTGGCTACGACGGGATT
B30: UAAACUA (DNA:RNA)
RNA: B11 RNA with C25U, U26A, C27A, G28A, G30U, U31A
DNA 1: CAATCTGAATTCCGGTCTCCC
DNA 2: TGGTGGCTACGACGGGATT
B31: UUUGGGU (DNA:RNA)
RNA: B11 RNA with C25U, C27U, C29G
DNA 1: CAATCTGAATTCCGGTCTCCC
DNA 2: TGGTGGCTACGACGGGATT

Where a chain is given by its changes, count along the chain named. The list shows a part of the results.

The target in the assay is T1, RBFOX1 RRM RbFoxmut (Fox-RRM*). As to the kind of experiment: EMSA; HiTS-Eq, 1 nM pool, 10 min; buffer printed only for the single-RNA assays: 10 mM Tris pH 7.5, 150 mM NaCl, 3.4 mM EDTA, 0.001% NP-40, 30 C. Particulars: tags: His6 N-terminal (pET28a); label: 5' 32P. A digest of the protocol: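 Purified RbFox RRM, wild type or mutant, was incubated for 10 min in 50 µL with 1 nM of a 5′-radiolabelled RNA pool carrying 7 randomized nucleotides, whose flanks were annealed to DNA oligonucleotides, over a series of increasing protein concentrations. Unbound RNA was resolved on 8% native PAGE, cut out, reverse-transcribed, barcoded by PCR and sequenced on an Illumina HiSeq 2500. Relative association constants were derived from changes in read counts for each RNA species versus the control reaction and normalised to the cognate motif.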
For the molecule B1, the binding signal was 0.161 KA relative to UGCAUGU. In the case of B2 it was 0.0814 KA relative to UGCAUGU; in that of B3, 0.201 KA relative to UGCAUGU. As to B4, the binding signal is 0.0782 KA relative to UGCAUGU.

As to B5, the binding signal is 0.0757 KA relative to UGCAUGU.

Regarding B6, the binding signal was 0.0802 KA relative to UGCAUGU. For B7 the value was 0.0843 KA relative to UGCAUGU. For B8 the value was 0.114 KA relative to UGCAUGU.

On to B9, for which the binding signal was 0.0626 KA relative to UGCAUGU. In the case of B10 it was 0.0942 KA relative to UGCAUGU. In the case of B11 it was 0.136 KA relative to UGCAUGU; in that of B12, 0.0968 KA relative to UGCAUGU. For B13 the value was 0.0779 KA relative to UGCAUGU. On to B14, for which the binding signal was 0.104 KA relative to UGCAUGU.

B15: the binding signal is 0.125 KA relative to UGCAUGU. In the case of B16, the binding signal was 0.0939 KA relative to UGCAUGU. In the case of B17 it was 0.144 KA relative to UGCAUGU; in that of B18, 0.16 KA relative to UGCAUGU; in that of B19, 0.119 KA relative to UGCAUGU. In the case of B20 it was 0.111 KA relative to UGCAUGU; in that of B21, 0.0901 KA relative to UGCAUGU; in that of B22, 0.138 KA relative to UGCAUGU.

As to B23, the binding signal is 0.105 KA relative to UGCAUGU. Consider B24, for which the binding signal is 0.147 KA relative to UGCAUGU. Turning to B25, the binding signal was 0.0766 KA relative to UGCAUGU.

Take B26: the binding signal was 0.109 KA relative to UGCAUGU. For B27, the binding signal was 0.0725 KA relative to UGCAUGU. Regarding B28, the binding signal was 0.0718 KA relative to UGCAUGU.

As to B29, the binding signal is 0.142 KA relative to UGCAUGU. As to B30, the binding signal is 0.0603 KA relative to UGCAUGU.

For B31, the binding signal is 0.0998 KA relative to UGCAUGU.
